Hit rate of the full screen: of about 360,000 compounds, about 6,000 (1.7%) were called active. The inconclusive results got no clear call from the source; some entries with a clear call stand among them for comparison. Calls follow the shape of the dose curve; as a rule, active = well fitted cell-killing curve with a large enough effect; inconclusive = small, poorly fitted or top-dose-only effect, or effect the other way; inactive = flat fitted curve, though single readings scatter. No potency is given beside an inconclusive call; the fits are too rough.
Assay: qHTS for induction of synthetic lethality in tumor cells producing 2HG: qHTS for the HT-1080-NT fibrosarcoma cell line;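 also: NT is the 2HG producing partner of a matched IDH1 knockdown line; nearly all actives have a fitted effect of over 55% in size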;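 as to activity, negative = less viability: 0% = DMSO-treated cells and -100% = media-only wells without cells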
Conditions: HT-1080-NT fibrosarcoma viability, CellTiter-Glo ATP luminescence, 48 h; activity, negative = less viability: at 46.1 µM (top of the series) unless noted
How it was run: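 Compounds were tested in concentration-response format on HT-1080-NT cells for 48 hours at 37 degrees C. Cell viability came from CellTiter-Glo luminescence; curves were classified by r2, response magnitude and activity.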
In the case of CC1CN(S(=O)(=O)c2cccc(C(=O)OC/C(O)=C(\C#N)c3nc4ccccc4[nH]3)c2)CC(C)O1 (centres undefined), the Potency is reported as inconclusive [cytotoxic, single point].
For COc1cc(CNCCSc2nnnn2C)cc(Br)c1OCc1ccccc1, the Potency was “inactive”.
In the case of CCOc1cc(N2CCOCC2)c(OCC)cc1NC(=O)COC(=O)c1cc2ccccc2cc1O, the Potency is reported as “inactive”.
With O=C(Nc1ccc(S(=O)(=O)NC2=NCCCCC2)cc1)c1ccc([N+](=O)[O-])s1 the Potency was inconclusive [cytotoxic, single point].
For Cc1cccc(NC(=S)N=Nc2c(O)[nH]c3ccccc23)c1, the Potency was inconclusive [cytotoxic, partial curve].
For Cc1ccc(SCC(=O)OCn2nnc3ccccc3c2=O)cc1C, the activity, negative = less viability was inconclusive: 35.3%.
With COc1cc(CNn2cn[nH]c2=S)cc(Cl)c1OCc1ccccc1 the Potency was inconclusive [cytotoxic, single point].
For Cc1ccc(/C=N/n2c(C3CCCCC3)n[nH]c2=S)cc1, the Potency was “inactive”.
For CC(C)CNC(=O)COC(=O)c1c2c(nc3ccccc13)/C(=C\c1cccs1)CC2, the Potency was “inactive”.
In the case of O=C(Nc1sc(-c2ccccc2)cc1C(=O)O)c1ccccc1, the Potency is reported as inconclusive [cytotoxic, single point].
For Cc1ccsc1C(=O)NCC(c1cccs1)N1CCOCC1 (centres undefined), the Potency was active: 18.4 µM.
With Cc1ccc(Cn2cc(/C=N/Nc3ccc([N+](=O)[O-])cn3)c3ccccc32)cc1 the Potency was inconclusive [cytotoxic, partial curve].
With CN1C(=O)N(C)C2CC1N(C)C(=O)N2C the Potency was “inactive”.
In the case of COc1ccccc1N1CCN(C(=O)c2cn(-c3ccccc3)nc2-c2cccnc2)CC1, the Potency is reported as inconclusive [cytotoxic, single point].
For CSc1cccc(NC(=O)c2nnn(CC(=O)Nc3cc(C)cc(C)c3)c2N)c1, the Potency was inconclusive [cytotoxic, single point].
With CCC(C)N(CCNC(=O)c1ccc2c(c1)NC(=O)c1ccccc1S2)C1CCCCC1 (centres undefined) the Potency was inconclusive [cytotoxic, single point].
For O=C1C(=O)N(CCS(=O)(=O)c2ccccc2)c2ccc(Cl)cc21, the Potency was inconclusive [cytotoxic, single point].
In the case of Cc1cccc(OCc2nnc(SCC(=O)NCCc3ccccc3)o2)c1, the Potency is reported as “inactive”.
For O=C(Nc1ccc(Br)cn1)c1ccc([N+](=O)[O-])o1, the Potency was inconclusive [cytotoxic, partial curve, poor fit].
For CCOC(=O)C1=C(CSc2nc3c(cc2C#N)CCC3)OC(N)=C(C#N)C1c1ccccc1 (centres undefined), the Potency was inconclusive [cytotoxic, single point].
For COC(=O)c1cc(NC(=O)c2ccc(Cn3cc(Cl)cn3)o2)cc(C(=O)OC)c1, the Potency was inconclusive [cytotoxic, single point].
For O=C(NCc1cccs1)C1CCCN(C(=O)Nc2ccccc2)C1 (centres undefined), the Potency was inconclusive [cytotoxic, full curve].
For O=Cc1ccccc1OCCCOc1cccc2cccnc12, the Potency was inconclusive [cytotoxic, single point].
With COc1ccc(C(=O)CSC(=S)N2CCCCC2)cc1 the Potency was “inactive”.
With CCN1C(=O)[C@H]2[C@H]3CN=C(SCc4ccc(C)cc4)N3[C@@](Cc3ccccc3)(C(=O)OC)[C@H]2C1=O the Potency was “inactive”.
In the case of O=C(NC1CCCCC1)N1CCC(c2nc3ccc(Cl)cc3[nH]2)CC1, the Potency is reported as inconclusive [cytotoxic, single point].
In the case of O=C(C[C@@H]1C/C=C/CC[C@@H](Cc2ccc(F)cc2)C(=O)OC[C@H](Cc2ccccc2)NC1=O)N[C@H](CO)Cc1ccccc1, the Potency is reported as inconclusive [cytotoxic, single point].
For COc1ccc(NC(=O)Cn2nnc(C(=O)NCCc3ccccc3)c2N)c(OC)c1, the Potency was inconclusive [rising, single point].
In the case of CCn1cc(C(=O)NCc2ccccc2)c(=O)c2cc(F)c(N3CCN(C(=O)c4ccco4)CC3)cc21, the Potency is reported as active: 20.6 µM.
In the case of CC(NC(=S)NCc1ccccc1)C12CC3CC(CC(C3)C1)C2 (centres undefined), the Potency is reported as “inactive”.
For COC(=O)C1CCN(C(=O)c2cc(-c3ccc(Cl)s3)nc3ccccc23)CC1, the Potency was inconclusive [cytotoxic, single point].
With CCOC(=O)CNC(=O)N(C)[C@H]1C[C@H]2c3[nH]c4ccccc4c3CCN2C[C@H]1[C@H](C)O the Potency was “inactive”.
With O=C(Cc1ccccc1F)Nc1cccc(S(=O)(=O)N2CCCCC2)c1 the Potency was “inactive”.
For COc1ccc(/C=C(/NC(=O)c2ccccc2)C(=O)N/N=C/c2ccc3c(c2)OCO3)cc1OC, the Potency was inconclusive [cytotoxic, full curve, poor fit].
With O=C1C(CSCc2ccccc2)NC(=S)N1c1ccccc1 (centres undefined) the Potency was “inactive”.
For COc1ccccc1C1(CC(=O)Nc2nccs2)CCOC(C(C)C)C1 (centres undefined), the Potency was inconclusive [cytotoxic, single point].
For C[C@@H]1CN([C@H](C)CO)S(=O)(=O)c2ccc(C#Cc3cccc(F)c3)cc2O[C@@H]1CN(C)C(=O)CN1CCOCC1, the Potency was “inactive”.
For CCOC(=O)c1ccc(S(=O)(=O)NCC(c2ccc(N(C)C)cc2)c2c[nH]c3ccccc23)cc1 (centres undefined), the Potency was inconclusive [cytotoxic, single point].
In the case of CC1CCc2sc3ncnc(N4CCN(CCO)CC4)c3c2C1 (centres undefined), the Potency is reported as “inactive”.
For COc1ccc(NC(=O)Cn2nc(C(=O)O)c3ccccc3c2=O)cc1OC, the Potency was inconclusive [rising, single point].
In the case of COc1ccc(CCNc2nc(-c3ccccn3)cs2)cc1OC, the Potency is reported as inconclusive [cytotoxic, single point].
In the case of CCOC(=O)c1c(NC(=O)CSc2nnc(-c3cccnc3)n2Cc2ccco2)sc(C)c1C, the Potency is reported as “inactive”.
With N#CC1=CN(Cc2ccccc2)C=C(/C=N/Nc2ccccc2)C1 the Potency was inconclusive [cytotoxic, full curve].
For O=S(=O)(c1ccc(N=C2NN=C(c3cc(F)ccc3F)CS2)cc1)N1CCOCC1, the Potency was inconclusive [cytotoxic, partial curve].

Reference: PubChem BioAssay AID686970 (National Center for Advancing Translational Sciences (NCATS), 2013)
Potency is read from the fitted curve at half-maximal effect; tags tell the direction and shape of the fitted curve.
